Results from patent publication US5801149A, “Inhibition of signal transduction molecules” (Joslin D-abetes Center, Inc., priority 1995, dated 1998).
For some assays here: At least one peptide structure holds a part that was inferred or is arguable (an end, a ring closure or a residue). For some assays here: The name of at least one read-out is uncertain. For some assays here: At least one structure is not confirmed: it was looked up by name or label, or the drawing left a doubt. Non-standard residues stand in square brackets, D forms with d. Residues, ends and D or L forms follow the SMILES beside them. No end group written: not given here. ξ: configuration not given here. F2Pmp = N[C@@H](Cc1ccc(C(F)(F)P(=O)(O)O)cc1)C(=O)O; dF2Pmp = N[C@H](Cc1ccc(C(F)(F)P(=O)(O)O)cc1)C(=O)O; ξF2Pmp = NC(Cc1ccc(C(F)(F)P(=O)(O)O)cc1)C(=O)O; Pmp = N[C@@H](Cc1ccc(CP(=O)(O)O)cc1)C(=O)O; dPmp = N[C@H](Cc1ccc(CP(=O)(O)O)cc1)C(=O)O; pY = N[C@@H](Cc1ccc(OP(=O)(O)O)cc1)C(=O)O

Legend:
insulin receptor kinase = insulin receptor kinase (Homo sapiens, UniProt P06213); assay: Phosphorylation of IRS-1 peptides by insulin and ATP-activated insulin receptors; settings: substituted peptide Y987 versus parent Y987
Sequence of insulin receptor kinase (P06213 28-1382): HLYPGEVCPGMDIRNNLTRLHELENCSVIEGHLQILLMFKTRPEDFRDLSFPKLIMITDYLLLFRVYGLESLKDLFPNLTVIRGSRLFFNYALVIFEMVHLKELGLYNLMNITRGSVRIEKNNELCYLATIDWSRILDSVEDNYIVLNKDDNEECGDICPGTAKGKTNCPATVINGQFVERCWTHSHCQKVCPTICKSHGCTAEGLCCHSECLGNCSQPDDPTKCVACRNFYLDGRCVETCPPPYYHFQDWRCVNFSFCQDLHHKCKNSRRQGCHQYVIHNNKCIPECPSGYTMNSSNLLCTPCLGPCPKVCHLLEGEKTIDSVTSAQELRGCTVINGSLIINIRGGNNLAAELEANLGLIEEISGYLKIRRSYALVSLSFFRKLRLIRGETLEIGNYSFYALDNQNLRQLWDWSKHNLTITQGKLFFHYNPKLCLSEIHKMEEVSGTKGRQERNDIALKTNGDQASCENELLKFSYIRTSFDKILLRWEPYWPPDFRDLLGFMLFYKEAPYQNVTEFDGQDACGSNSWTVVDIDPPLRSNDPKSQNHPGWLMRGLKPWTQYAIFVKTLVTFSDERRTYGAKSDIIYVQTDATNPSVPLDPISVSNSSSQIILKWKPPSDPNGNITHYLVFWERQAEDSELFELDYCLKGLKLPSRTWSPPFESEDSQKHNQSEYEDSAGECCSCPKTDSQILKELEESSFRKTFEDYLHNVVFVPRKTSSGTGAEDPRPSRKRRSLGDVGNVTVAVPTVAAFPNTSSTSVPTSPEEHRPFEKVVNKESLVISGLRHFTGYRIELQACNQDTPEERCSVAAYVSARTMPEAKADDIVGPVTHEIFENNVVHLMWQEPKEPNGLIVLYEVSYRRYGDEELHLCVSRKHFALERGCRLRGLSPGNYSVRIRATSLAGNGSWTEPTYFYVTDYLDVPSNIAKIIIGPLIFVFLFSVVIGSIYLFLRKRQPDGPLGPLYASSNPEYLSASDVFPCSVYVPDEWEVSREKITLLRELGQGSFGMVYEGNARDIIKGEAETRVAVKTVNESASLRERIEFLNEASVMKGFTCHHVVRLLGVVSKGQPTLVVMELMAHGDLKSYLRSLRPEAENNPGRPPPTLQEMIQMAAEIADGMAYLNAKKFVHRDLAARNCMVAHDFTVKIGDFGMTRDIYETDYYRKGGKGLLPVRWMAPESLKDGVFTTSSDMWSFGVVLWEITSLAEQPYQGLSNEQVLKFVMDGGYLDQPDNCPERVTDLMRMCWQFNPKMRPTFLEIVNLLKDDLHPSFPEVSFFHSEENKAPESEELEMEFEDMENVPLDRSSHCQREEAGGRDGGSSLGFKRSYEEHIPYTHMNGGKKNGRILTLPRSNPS

[1] = target: T1, N-terminal p85 SH2/GST fusion protein (Homo sapiens, UniProt P27986); assay type: binding
T1 construct: N-terminal p85 SH2/GST fusion proteins (100 nM)
T1 sequence (P27986 333-428 limits assumed): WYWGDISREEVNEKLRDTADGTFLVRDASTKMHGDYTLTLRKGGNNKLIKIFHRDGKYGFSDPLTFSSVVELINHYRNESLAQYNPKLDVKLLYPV
Procedure: Peptide Binding to Isolated Glutathione S-Transferase/SH2 Domain Fusion Proteins was determined as follows. N-terminal p85 SH2/GST fusion proteins (100 nM) (Hu et al., 1992, Mol. Cell. Biol. 12:981-990), 35 fmol of HPLC-purified, [^125 I]Bolton-Hunter-treated phosphopeptide (67 nCi) and varying concentrations of unlabeled peptides were combined in 200 μl total volume of 20 mM tris-HCl, 250 mM NaCl, 0.1% bovine serum albumin, 10 mM dithiothreitol, pH 7.4. Glutathione-agarose (25 μl of a 1:4 aqueous slurry, Molecular Probes) was added and the samples were incubated at 22° C. for 4 h. Following centrifugation for 5 min at 12,000×g, supernatant solutions were removed by aspiration and [^125 I]radioactivity associated with the pellets was determined with a […].
Phosphopeptide and phosphonopeptide binding to p85 SH2 domains. To investigate the mechanism of phosphonopeptide inhibition of association direct binding to an isolated SH2 domain of the p85 of PI 3-kinase was analyzed. In the assay, tracer amounts of [^125 I]-labeled phosphopeptide, SH2 domain/GST fusion protein, and varying concentrations of unlabeled peptides were incubated together along with glutathione-agarose. […] ID50 values were determined as the concentration of unlabeled peptide required to inhibit 50% of specific [^125 I]phosphopeptide binding. […]

[2] = target: T2, association between pp60^c-grc /mT and PI 3-kinase (Mus musculus, UniProt P26450); assay: Inhibition of in vitro association of cytosolic PI 3-kinase activity (Balb/3T3 lysate) with immunopurified pp60^c-grc /mT; assay type: biochemical; settings: presence of 200 μM sodium vanadate; 30 min
T2 construct: endogenous in cells; host or cells: Balb/3T3 cells (PI 3-kinase); pp60c-src/mT from baculovirus-infected Sf9 cells
T2 sequence (P26450 whole entry): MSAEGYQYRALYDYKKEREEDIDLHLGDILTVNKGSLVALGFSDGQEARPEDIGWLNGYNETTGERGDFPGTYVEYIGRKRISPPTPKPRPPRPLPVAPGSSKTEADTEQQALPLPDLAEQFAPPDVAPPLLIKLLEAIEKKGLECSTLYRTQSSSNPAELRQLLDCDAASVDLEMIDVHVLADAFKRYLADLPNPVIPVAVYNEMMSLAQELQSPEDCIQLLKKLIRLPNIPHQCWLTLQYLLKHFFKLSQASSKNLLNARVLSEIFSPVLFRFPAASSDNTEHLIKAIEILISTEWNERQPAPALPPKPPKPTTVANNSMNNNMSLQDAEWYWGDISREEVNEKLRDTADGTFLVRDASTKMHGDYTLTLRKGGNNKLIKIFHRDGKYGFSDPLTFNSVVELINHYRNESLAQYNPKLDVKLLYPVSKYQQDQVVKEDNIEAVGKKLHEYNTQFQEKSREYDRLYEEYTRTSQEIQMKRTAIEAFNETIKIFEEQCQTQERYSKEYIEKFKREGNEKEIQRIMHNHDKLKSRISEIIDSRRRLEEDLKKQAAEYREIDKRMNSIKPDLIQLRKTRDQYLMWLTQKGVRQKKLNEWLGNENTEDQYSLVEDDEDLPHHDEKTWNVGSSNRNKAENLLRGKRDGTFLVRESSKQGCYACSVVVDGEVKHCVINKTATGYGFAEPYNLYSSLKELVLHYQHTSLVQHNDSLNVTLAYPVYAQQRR
Source text: Inhibition of the in vitro Association of PI 3-Kinase Activity With Immunopurified pp60^c-grc /mT. Baculovirus-expressed pp60^c-grc /mT complex was immunopurified from infection Sf9 insect cell (Piwnica-Worms et al., 1990, J. Virol. 64:61-68) lysates as described (Auger et al., 1990, 1992, J. BioL Chem. 267:5408-5415). PI 3-kinase activity was obtained directly from crude Balb/3T3 cell lysates as follows. After washing confluent 10 cm dishes with phosphate-buffered saline, Balb/3T3 cells were treated with lysis buffer (137 mM NaCI, 20 mM Hepes, 1 mM MgCl2, 1 mM CaCl2, 10% glycerol, 1% Nonidet P-40, and 1 μg/ml each of leupeptin, pepstatin A and aprotinin, pH 7.25) in the presence or absence of 0.15 mM sodium vanadate. Following a 10 min incubation with lysis buffer, cells were scrape-harvested and particulate debris was removed from the lysates by centrifugation at 12,000×g for 5 min. at 4° C. Varying concentrations of peptides were added directly to the lysates and incubated at 4° C. for 30 min.
Lysate-peptide mixtures were combined with protein A-Sepharose beads containing immunoprecipitated pp60^c-grc /mT complexes. After washing, the beads were used to catalyze phosphatidylinositol phosphorylation as described (Whitman et al., 1985, Nature 315:239-242; Auger et al., 1989, Cell 57:167-175, 1990, Methods in Inositide Res. pp. 159-166). […]

[3] = target: T3, p85 SH2 domains (SH2/GST fusion protein) (Homo sapiens, UniProt P27986); assay: Biospecific interaction analysis of binding to p85 SH2 domains; settings: for estimated KD by comparison: from relative affinity versus mT-pY315
T3 construct: GST
T3 sequence (P27986 333-428 limits assumed): as the sequence (P27986 333-428 limits assumed) above
Procedure: Therefore, mT-pY315 binding to p85 SH2 domains was analyzed using biospecific interaction analysis as previously described to obtain a more accurate estimate for KD. Series of data were obtained during real-time binding experiments with different concentrations of SH2/GST fusion protein (data not shown).

SH2 domain of Src = SH2 domain of Src (Homo sapiens, UniProt P12931)
Sequence of SH2 domain of Src (P12931 151-248 limits assumed): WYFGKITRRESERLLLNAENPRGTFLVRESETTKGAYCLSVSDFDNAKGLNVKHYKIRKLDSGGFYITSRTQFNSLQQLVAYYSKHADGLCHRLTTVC
Source text: In these experiments, one or both hydrogen atoms were replaced on Pmp at the carbon position between the phenyl ring and the phosphonate.

SH2 region of Grb2 = target: T4, SH2 region of Grb2 (Homo sapiens, UniProt P62993); assay: SH2 domain binding of NXVNIE peptides (FIG. 3 panel C); settings: peptide NXVNIE, X varied; read-out: ED50 (the source's name)
T4 construct: for the SH2 region of Grb2 where X was pTyr
T4 sequence (P62993 60-152 limits assumed): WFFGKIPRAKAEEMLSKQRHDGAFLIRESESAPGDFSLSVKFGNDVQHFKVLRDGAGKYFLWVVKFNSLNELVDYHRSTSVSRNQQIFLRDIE

## KKSRGDYTTMQIG [Y987 Met^Y+1 (Thr)]
Insulin receptor kinase
  reduction of catalytic efficiency (kcat /Km): ~5 fold

## CSCC[C@H](NC(=O)[C@@H]1CCCN1C(=O)[C@H](CCSC)NC(=O)[C@H](Cc1ccc(OP(=O)(O)O)cc1)NC(=O)[C@H](CCC(=O)O)NC(=O)[C@H](CCC(=O)O)NC(=O)[C@@H](N)CCC(=O)O)C(=O)N[C@@H](CCC(=O)O)C(=O)N[C@@H](CC(=O)O)C(=O)N[C@@H](CC(C)C)C(=O)N[C@@H](Cc1ccc(O)cc1)C(=O)O [mT-pY315, EEEpYMPMEDLY] (H-EEE[pY]MPMEDLY-OH)
[1]; 100 nM fusion protein, 22° C., 4 h, read-out: ID50 (inhibition of 50% of specific [125I]phosphopeptide binding)
  IC50: 3.6 µM
[2]
  ID50 for inhibition of association between pp60^c-grc /mT and PI 3-kinase: ≈ 100 nM
[3]; isolated SH2 domains of PI 3-kinase p85, overview statement
  Kd: 0.01 to 0.02 µM

## KKSRGDYITMQIG [Y987 Met^Y+1 (Ile)]
Insulin receptor kinase
  reduction of catalytic efficiency (kcat /Km): ~5 fold

## KKSRGDYMTTQIG [Y987 Met^Y+3 →Thr]
Insulin receptor kinase
  reduction of catalytic efficiency (kcat /Km): 12 fold

## KKSRGNYMTMQIG [Y987 Asp→Asn]
Insulin receptor kinase
  reduction of catalytic efficiency (kcat /Km): 2.5 fold

## CC[C@H](C)[C@H](NC(=O)[C@H](CCC(=O)O)NC(=O)[C@H](CCC(=O)O)NC(=O)C(Cc1ccc(C(F)(F)P(=O)(O)O)cc1)NC(=O)[C@H](CCC(N)=O)NC(C)=O)C(=O)N1CCC[C@H]1C(N)=O (some centres unmarked) [QXEEIP (F2 Pmp), Ac-Q-F2 Pmp-E-E-I-P-NH2] (Ac-Q[ξF2Pmp]EEIP-NH2)
SH2 domain of Src
  binding relative to phosphotyrosine peptide: binds more avidly to the SH2 domain of Src than phosphotyrosine
SH2 domain of Src; read-out: ED50, peptide QXEEIP, X varied
  IC50: 1 ± 0.2 µM

## CSCC[C@H](NC(=O)[C@@H]1CCCN1C(=O)[C@H](CCSC)NC(=O)[C@@H](Cc1ccc(CP(=O)(O)O)cc1)NC(=O)[C@H](CCC(=O)O)NC(=O)[C@H](CCC(=O)O)NC(=O)[C@@H](N)CCC(=O)O)C(=O)N[C@@H](CCC(=O)O)C(=O)N[C@@H](CC(=O)O)C(=O)N[C@@H](CC(C)C)C(=O)N[C@@H](Cc1ccc(O)cc1)C(=O)O [D-mT-Pmp315] (H-EEE[dPmp]MPMEDLY-OH)
[3]
  estimated KD by comparison: 0.3 to 0.4 µM

## CC[C@H](C)[C@H](NC(=O)[C@H](CC(N)=O)NC(=O)[C@@H](NC(=O)[C@@H](Cc1ccc(C(F)(F)P(=O)(O)O)cc1)NC(=O)[C@H](CC(N)=O)NC(C)=O)C(C)C)C(=O)N[C@@H](CCC(=O)O)C(N)=O [NXVNIE (D-F2 Pmp)] (Ac-N[dF2Pmp]VNIE-NH2)
SH2 region of Grb2
  IC50: > 300 µM

## CC[C@H](C)[C@H](NC(=O)[C@H](CC(N)=O)NC(=O)[C@@H](NC(=O)[C@H](Cc1ccc(C(F)(F)P(=O)(O)O)cc1)NC(=O)[C@H](CC(N)=O)NC(C)=O)C(C)C)C(=O)N[C@@H](CCC(=O)O)C(N)=O [NXVNIE (L-F2 Pmp)] (Ac-N[F2Pmp]VNIE-NH2)
SH2 region of Grb2
  IC50: 4.7 ± 0.7 µM

## CSCC[C@H](NC(=O)[C@@H]1CCCN1C(=O)[C@H](CCSC)NC(=O)[C@H](Cc1ccc(CP(=O)(O)O)cc1)NC(=O)[C@H](CCC(=O)O)NC(=O)[C@H](CCC(=O)O)NC(=O)[C@@H](N)CCC(=O)O)C(=O)N[C@@H](CCC(=O)O)C(=O)N[C@@H](CC(=O)O)C(=O)N[C@@H](CC(C)C)C(=O)N[C@@H](Cc1ccc(O)cc1)C(=O)O [L-mT-Pmp315] (H-EEE[Pmp]MPMEDLY-OH)
[1]; fold weaker / higher than phosphopeptide
  relative ID50 versus phosphopeptide mT-pY315: 2 fold
[3]
  estimated KD by comparison: 0.02 µM
